Experimental data: the supplement of paper PMC7826260
The list shows a part of the results. Viral Rep nickase domains cut single-stranded DNA in vitro (3 µM enzyme, 1 h, 37 °C); shown is the middle of each 90-letter strand. The score is log2 (uncut reads / reads without enzyme); strong cutting gives strongly negative numbers. There is no active / inactive call. Counts are relative to all reads; values above 0 arise when much of the pool is cut.

tested on: T1, Rep nickase domain of wheat dwarf virus; experiment: uncleaved DNA left, log2 of reads against the no-enzyme library (log2 ratio); higher = less cleavage (more negative = more Rep cleavage of the k-mer); sequences stand for … in CTCGTCCG…ACCGGAGA
T1 sequence (protein, residues 1-137, tag omitted): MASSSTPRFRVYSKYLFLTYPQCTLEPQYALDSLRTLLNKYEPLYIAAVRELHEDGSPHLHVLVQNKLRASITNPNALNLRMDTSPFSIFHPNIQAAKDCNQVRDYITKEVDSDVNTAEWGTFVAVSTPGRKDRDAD
Protocol: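 A pool of 90-nt single-stranded DNAs with seven random bases just before the constant AC of the nick site (name = the seven bases) was cut by 3 µM recombinant His6-SUMO-tagged Rep nickase domain (300 nM DNA, 50 mM HEPES pH 8.0, 50 mM NaCl, 1 mM MnCl2, 1 h, 37 °C, three replicates). Uncut DNA was amplified and sequenced.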

| Sequence | uncleaved DNA left (log2) |
| --- | --- |
| ACCACAG | 0.0416 |
| GACTTAT | 0.0128 |
| TGACCTT | 0.267 |
| GCTCACA | 0.139 |
| AAACTCT | -0.707 |
| ACAGAGT | 0.0604 |
| CGTCTAG | 0.0182 |
| CGCCATT | 0.0191 |
| AAATGGG | 0.0153 |
| GATGGGC | 0.0334 |
| AGGATGC | -0.069 |
| TGCTATG | 0.0265 |
| CTTTGGA | -0.0498 |
| GGTGTAA | 0.206 |
| CCTTATT | -0.634 |
| GGCGATC | 0.123 |
| TATATTC | -0.0784 |
| GGATACA | 0.108 |
| GTACGCA | -0.0162 |
| AATCACA | 0.146 |

| Sequence | uncleaved DNA left (log2) |
| --- | --- |
| CACAGTT | -0.194 |
| GGTTTGG | 0.048 |
| GTATGAA | 0.137 |
| GGGCATC | 0.116 |
| AGTCATT | 0.187 |
| GGCCTGT | 0.169 |
| TCTAAAC | 0.0813 |
| AGGCAAG | -0.0854 |
| CTGTCAC | 0.0252 |
| TTGACCG | -0.046 |
| CAAGCAC | -0.0396 |
| GACCCGC | 0.12 |
| GTGTAGG | 0.126 |
| ATATAGG | 0.0923 |
| CGGCCGA | -0.0204 |
| AGGGGTG | -0.0574 |
| TACGGCG | -0.113 |
| TACATTC | 0.0915 |
| GACAGGT | 0.0361 |
| TATGTGG | 0.048 |
